Assay results: the supplement of paper PMC4604168 (melanoma cell lines)
Some of the results follow. Repeats are few or missing, and single values can be far off.

What follows are compounds tested on COLO792 (assay: cell count relative to DMSO control; melanoma cells; higher = more viable cells). Conditions: library dose: low library concentration; 72 h.
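Further: cell number obtained by counting DAPI-stained nuclei in high-throughput microscope images with image analysis software, screen run in 1,536-well plates.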

| Compound | cell count |
| --- | --- |
| CC(=O)O[C@@]12CO[C@@H]1C[C@H](O)[C@@]1(C)C(=O)[C@H](O)C3=C(C)[C@@H](OC(=O)[C@H](O)[C@@H](NC(=O)OC(C)(C)C)c4ccccc4)C[C@@](O)([C@@H](OC(=O)c4ccccc4)[C@H]21)C3(C)C [Docetaxel] + O=S(=O)(c1ccccc1)N(CC(F)(F)F)c1ccc(C(O)(C(F)(F)F)C(F)(F)F)cc1 [T0901317] (first compound 0.0001 µM, partner dose 1.4 µM) | 30.4% |
| Nc1nc(F)nc2c1ncn2[C@@H]1O[C@H](CO)[C@@H](O)[C@@H]1O [fludarabine] + CCN(CC)CCCCNc1ncc2cc(-c3cc(OC)cc(OC)c3)c(NC(=O)NC(C)(C)C)nc2n1 [PD173074] (first compound 0.2 µM, partner dose 0.1 µM) | 92.5% |
| CC(=O)c1c(C)c2cnc(Nc3ccc(N4CCNCC4)cn3)nc2n(C2CCCC2)c1=O [palbociclib] + N#Cc1c(O)c2c(-c3ccc(-c4ccccc4O)cc3)csc2[nH]c1=O [A769662] (first compound 0.04 µM, partner dose 2 µM) | 65.4% |
| CC(=O)O[C@@]12CO[C@@H]1C[C@H](O)[C@@]1(C)C(=O)[C@H](O)C3=C(C)[C@@H](OC(=O)[C@H](O)[C@@H](NC(=O)OC(C)(C)C)c4ccccc4)C[C@@](O)([C@@H](OC(=O)c4ccccc4)[C@H]21)C3(C)C [Docetaxel] + Oc1cc(-c2nc(-c3ccccc3)[nH]c2-c2ccncc2)ccc1Cl [L779450] (first compound 0.0001 µM, partner dose 0.2 µM) | 35% |
| CC(=O)c1c(C)c2cnc(Nc3ccc(N4CCNCC4)cn3)nc2n(C2CCCC2)c1=O [palbociclib] + O=C(O)C(=O)Nc1sc2c(c1C(=O)O)CCNC2 [TCS401] (first compound 0.04 µM, partner dose 1.66667 µM) | 65.4% |
| Nc1ncn([C@H]2C[C@H](O)[C@@H](CO)O2)c(=O)n1 [decitabine] + COc1cc(N2CCC(N3CCN(C)CC3)CC2)ccc1Nc1ncc(Cl)c(Nc2ccccc2S(=O)(=O)C(C)C)n1 [NVP-TAE684] (first compound 0.1 µM, partner dose 0.08 µM) | 72.6% |
| CC(=O)c1c(C)c2cnc(Nc3ccc(N4CCNCC4)cn3)nc2n(C2CCCC2)c1=O [palbociclib] + CCCCCCCCCCCC1=C(O)C(=O)C=C(O)C1=O [Embelin] (first compound 0.04 µM, partner dose 1.2 µM) | 76.2% |
| CC(=O)O[C@@]12CO[C@@H]1C[C@H](O)[C@@]1(C)C(=O)[C@H](O)C3=C(C)[C@@H](OC(=O)[C@H](O)[C@@H](NC(=O)OC(C)(C)C)c4ccccc4)C[C@@](O)([C@@H](OC(=O)c4ccccc4)[C@H]21)C3(C)C [Docetaxel] + O=C1NC(=O)/C(=C/c2ccc(-c3ccc(F)cc3O)o2)S1 [AS252424] (first compound 0.0001 µM, partner dose 1 µM) | 33% |
| CC(=O)O[C@@]12CO[C@@H]1C[C@H](O)[C@@]1(C)C(=O)[C@H](O)C3=C(C)[C@@H](OC(=O)[C@H](O)[C@@H](NC(=O)OC(C)(C)C)c4ccccc4)C[C@@](O)([C@@H](OC(=O)c4ccccc4)[C@H]21)C3(C)C [Docetaxel] + O=c1cc(-c2cccc3c2Sc2ccccc2S3)oc(N2CCOCC2)c1 [KU55933] (first compound 0.0001 µM, partner dose 1 µM) | 27.8% |
| Nc1nc(F)nc2c1ncn2[C@@H]1O[C@H](CO)[C@@H](O)[C@@H]1O [fludarabine] + O=C(Nc1ccccc1)c1cc([N+](=O)[O-])ccc1Cl [GW9662] (first compound 0.2 µM, partner dose 2 µM) | 113% |
| Nc1ncn([C@H]2C[C@H](O)[C@@H](CO)O2)c(=O)n1 [decitabine] + COc1ccc2c(c1)CCC1C2CCC2(C)C(NCCCCCCN3C(=O)C=CC3=O)CCC12 [U73122] (first compound 0.1 µM, partner dose 0.4 µM) | 88.7% |
| Nc1ccn([C@@H]2O[C@H](CO)[C@@H](O)C2(F)F)c(=O)n1 [gemcitabine] + CCCCCCCCCCCC1=C(O)C(=O)C=C(O)C1=O [Embelin] (first compound 0.0004 µM, partner dose 1.2 µM) | 98% |
| Nc1ccn([C@@H]2O[C@H](CO)[C@@H](O)C2(F)F)c(=O)n1 [gemcitabine] + COC(=O)c1sccc1S(=O)(=O)Nc1ccc(Nc2ccccc2)cc1OC [GSK0660] (first compound 0.0004 µM, partner dose 1 µM) | 97.6% |
